# According to PubChem BioAssay AID1745845 (National Center for Advancing Translational Sciences (NCATS), 2022):
# Hit rate of the full screen: of about 360,000 compounds, about 2,600 (0.72%) were called active. Inconclusive means that the source gave no clear call. Such entries were picked first, then a sample of the others. The call rests on the fitted dose curve; in most records, active means well fitted inhibition curve with a large enough effect; inconclusive means small, poorly fitted or top-dose-only effect; inactive means no such curve, though single readings can be large or run the other way. Where the call is inconclusive, the potency comes from a doubtful curve fit.
# Assay: Primary qHTS for Inhibitors of ATXN expression; further: nearly all actives have a fitted effect of over 55% in size
# Conditions: HEK-293 ATXN2-luciferase reporter, luminescence, 24 h; activity change, negative = inhibition: at 57 µM (top of the series)
# Method in brief: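 qHTS (up to 57 uM final) was run with 24 h compound exposure of reporter cells at 37 °C. Each well was multiplexed: SteadyGlo luminescence measured ATXN2-luciferase expression after a fluorogenic Gly-Phe-AFC viability readout (25 uM final).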
# On the % scale 0 is the no-effect control and ±100 the full control effect; potency means the concentration at half of the fitted maximal effect; tags describe the fitted curve by direction and shape.
SMILES,"activity change, negative = inhibition",Potency
CN(C)c1ccc(CNCc2cccnc2)cc1,inactive: 2.17%,
Cc1oc(C(=O)O)cc1COc1cccc2ccccc12,inconclusive: -51.8% [inhibitor],
N#Cc1c(N)c(C(=O)c2ccccc2)n2ccccc12,inactive: 5.36%,
N/C(=N/OC(=O)c1cccc([N+](=O)[O-])c1)c1cccc([N+](=O)[O-])c1,inactive: 5.24%,
COc1ccc(NC(=O)CN2C(=O)c3cccc4cccc2c34)cc1OC,,"inconclusive: 39.8 µM [inhibitor, single point]"
NS(=O)(=O)c1ccc(CNC(=O)C2(c3ccc(Cl)cc3)CC2)cc1,inactive: -8.13%,
CN1CCC=C(C(=O)N2c3ccccc3Sc3ccc(Cl)cc32)C1,,"inconclusive: 10 µM [inhibitor, partial curve, poor fit]"
Cc1ccc(C)c(Cn2c(=O)n(CCCC(=O)NCc3ccco3)c(=O)c3sccc32)c1,,"inconclusive: 11.2 µM [inhibitor, partial curve, poor fit]"
Nc1nc(Nc2cccc(Cl)c2)nc(NCCO)c1[N+](=O)[O-],,"inconclusive: 25.1 µM [inhibitor, partial curve, poor fit]"
Cc1ccc(S(=O)(=O)N2CCC(=O)N(C(COCc3ccc(C(F)(F)F)cc3)C(C)C)CC2)cc1 (stereo not given),,"inconclusive: 20 µM [inhibitor, partial curve, poor fit]"
O=C(Nc1ccc2nn(-c3ccc(F)cc3)nc2c1)c1cccc2c(Cl)cccc12,inactive: 0.481%,
CC1CCCN(S(=O)(=O)c2ccc(NC(=O)CNC3CCCC3)cc2)C1 (stereo not given),,"inconclusive: 15.8 µM [inhibitor, partial curve, poor fit]"
Cc1cc(NC(=O)CSc2nc(-c3ccc(Cl)cc3)cs2)no1,inactive: -22.8%,
CN1CCc2c(sc3c2C(=O)NC(c2ccc(-c4cccc(Cl)c4)o2)N3)C1 (stereo not given),,"inconclusive: 28.2 µM [inhibitor, partial curve, poor fit]"
COc1cccc2sc3cc(NCC[C@@H]4CCCN4C)ccc3c(=O)c12,,"inconclusive: 35.5 µM [inhibitor, single point]"
C=CCNC(=O)C1CCN(S(=O)(=O)c2ccc(Br)cc2)CC1,inactive: -3.83%,
COc1ccccc1C(=O)Nc1nc2ccccc2[nH]1,,active: 0.316 µM
Cc1cc2c(cc1C)C(c1cccc(OC(C)C)c1)CC(=O)N2 (stereo not given),inactive: -8.01%,
CCc1ccc(S(=O)(=O)NCCc2csc(-c3ccccc3)n2)s1,,"inconclusive: 31.6 µM [inhibitor, partial curve, poor fit]"
COC(=O)c1cc(=O)n(Cc2cccs2)c(=Nc2ccc(F)cc2)s1,,active: 21.2 µM
